Measured values published in publication PMC4336329 (PLoS ONE, 2015).
The campaign covered roughly 310,000 compounds. About 14,000 (4.5%) showed an effect of 50% or more. The effect is printed as a negative number. Some of the results follow.

What follows are molecules tested against human ether-à-go-go-related gene (hERG) potassium channel (human, UniProt Q12809) (assay: primary screen, population patch clamp on CHO cells stably expressing hERG).
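Note: peak tail current of the secondary pulse compared with the same well before compound.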

Chain of human ether-à-go-go-related gene (hERG) potassium channel (Q12809 whole entry, looked up): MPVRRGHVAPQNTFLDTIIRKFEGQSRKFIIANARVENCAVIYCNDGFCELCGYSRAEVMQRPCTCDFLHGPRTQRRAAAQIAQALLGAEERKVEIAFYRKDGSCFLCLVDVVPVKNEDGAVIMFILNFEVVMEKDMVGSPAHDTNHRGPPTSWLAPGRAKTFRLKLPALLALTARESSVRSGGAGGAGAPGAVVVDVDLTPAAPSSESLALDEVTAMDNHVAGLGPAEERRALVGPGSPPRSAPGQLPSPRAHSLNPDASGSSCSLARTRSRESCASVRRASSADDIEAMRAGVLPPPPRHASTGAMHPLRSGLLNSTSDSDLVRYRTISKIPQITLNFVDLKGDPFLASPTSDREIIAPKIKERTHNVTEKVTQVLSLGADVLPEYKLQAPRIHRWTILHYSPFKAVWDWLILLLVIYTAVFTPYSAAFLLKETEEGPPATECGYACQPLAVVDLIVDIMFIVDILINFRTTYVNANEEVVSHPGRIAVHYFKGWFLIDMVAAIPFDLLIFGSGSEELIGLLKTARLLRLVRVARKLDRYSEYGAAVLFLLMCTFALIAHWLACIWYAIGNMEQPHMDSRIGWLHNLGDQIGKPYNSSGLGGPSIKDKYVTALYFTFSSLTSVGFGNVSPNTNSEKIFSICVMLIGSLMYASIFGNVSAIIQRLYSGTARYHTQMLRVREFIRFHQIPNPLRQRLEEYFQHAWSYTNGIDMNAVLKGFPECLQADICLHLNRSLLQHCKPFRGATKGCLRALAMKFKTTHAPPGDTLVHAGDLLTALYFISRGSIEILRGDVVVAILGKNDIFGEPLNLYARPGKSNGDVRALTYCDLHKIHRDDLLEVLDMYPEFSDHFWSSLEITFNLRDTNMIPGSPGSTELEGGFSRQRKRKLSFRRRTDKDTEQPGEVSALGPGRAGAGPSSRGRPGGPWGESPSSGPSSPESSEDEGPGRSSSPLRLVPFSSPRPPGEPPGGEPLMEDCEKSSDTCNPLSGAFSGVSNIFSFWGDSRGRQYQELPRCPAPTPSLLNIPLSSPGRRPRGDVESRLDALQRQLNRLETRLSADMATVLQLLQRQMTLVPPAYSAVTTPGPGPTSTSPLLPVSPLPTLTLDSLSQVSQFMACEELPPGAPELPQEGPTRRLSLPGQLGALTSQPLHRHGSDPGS

Compound | hERG current change (%, negative = inhibition) at 10uM [%]
COc1ccc(NC(=O)COC(=O)COc2cccc3c2OC(C)(C)C3)cc1 | 6.29
CC(C)NCC(O)c1cc(O)cc(O)c1.O=S(=O)(O)O (stereo not shown) | 19.2
O=C(NCc1ccccn1)c1cc2ccccc2oc1=O | 4.95
Cc1ccc(C)c(Oc2coc3cc(OCC(=O)Nc4ccccc4C(C)C)ccc3c2=O)c1 | 3.76
C/C(=N\NC(=O)c1ccccc1F)c1cccc(NC(=O)c2ccccc2)c1 | 18
NC(=O)c1ccsc1NC(=O)COC(=O)c1ccccc1F | 9.9
COc1ccc(N(C(=O)c2ccn[nH]2)C(C(=O)NC2CCCC2)c2ccc(F)cc2)cc1 (stereo not shown) | 3.45
CC(=O)NCCOc1c(C)cc(S(N)(=O)=O)cc1C | 19.5
COc1cc(NC(=S)NCc2ccco2)cc(OC)c1 | 5.06
CN1C2=C(C(=O)CC(C)(C)C2)C(c2cccs2)C2=C1CC(C)(C)CC2=O | -4.74
Cc1ccc(N(Cc2cc(=O)[nH]c3ccccc23)C(=O)C(C)C)c(C)c1 | 1.62
CSCCC(C(=O)N1C[C@]2(C)C[C@H]1CC(C)(C)C2)N1C(=O)c2ccccc2C1=O (stereo partly shown) | -15.1
COC(=O)COc1cccc(NC(=O)c2ccccc2)c1 | 1.84
Cc1ccc(-n2ncc3c(=O)[nH]c(SCC(=O)N4CCN(c5ccccc5)CC4)nc32)cc1 | 3.28
O=C(CN1CCN(c2cccc(C(F)(F)F)c2)CC1)N(C1CC1)C1CCS(=O)(=O)C1 (stereo not shown) | -29.2
COc1cccc(-c2nnn(CC(=O)N3CCCCC3)n2)c1 | 4.75
NC(=O)CC(NC(=O)c1ccc(Br)cc1)c1ccc(N2CCN(c3ccc(F)cc3)CC2)c([N+](=O)[O-])c1 (stereo not shown) | 6.16
CN1CC(C(=O)c2ccc(F)cc2)C(c2ccc(F)cc2)C1 (stereo not shown) | -30.2
CN(C)c1nc2c(c(=O)[nH]c(=O)n2C)n1Cc1ccc(F)cc1 | -2.28
COC(=O)[C@H](Cc1ccccc1)NC(=O)NCc1ccccc1 | 2.31
COc1ccc(/C=C/C(=O)Nc2ccc(C(N)=O)cc2)cc1OC | 12.2
Cn1c(CNC(=O)CCNC(=O)c2ccc(F)c(F)c2)cc(=O)n(C)c1=O | -4.8
O=C1CN(C(=O)COC(=O)Cc2ccccc2)c2ccccc2N1 | 12.5
O=C(c1cc2nc(-c3ccco3)cc(C(F)(F)F)n2n1)N1CCN(c2ccc(F)cc2)CC1 | -34.5
CCc1ccc(CN(C)Cc2nc(COc3ccccc3)no2)nc1 | -11.4
Cc1ccc(Nc2cnn(C34CC5CC(CC(CC(=O)O)(C5)C3)C4)c(=O)c2Cl)cc1 | 12
CC(=O)c1cccc(NC(=O)C(Sc2ncnc3ccccc23)c2ccccc2)c1 (stereo not shown) | -25.8
COc1ccc(-c2nc(C)c(C(C)=O)n2O)cc1[N+](=O)[O-] | 8.82

Compound | hERG current change (%, negative = inhibition) at 10uM [%]
[O-]/[N+](=C/c1ccc(F)cc1)c1ccccc1 | 2.75
COCCN1C(=O)N[C@@H](c2ccc(Br)cc2)C(C(=O)OC)=C1C | -31.9
COc1ccc(/C=C2\SC(=S)N(CC(=O)NNC(=O)c3ccncc3)C2=O)cc1 | 15
CC1=C(/C=C/C(=O)O)C(C)(C)CCC1 | 15.3
N#Cc1nc(-c2ccco2)oc1NCCCN1CCOCC1 | -54.9
NC(=O)COc1ccc(C2c3c(oc4ccccc4c3=O)C(=O)N2CC2CCCO2)cc1 (stereo not shown) | -18
CCN(Cc1ccccc1)C(=O)CN1C(=O)COc2ccc(S(=O)(=O)NC3CCCC3)cc21 | -54.2
COc1cccc(NC(=O)c2cc(OC)c(OC)c(OC)c2Br)c1 | 11.4
O=C(N/N=C/c1ccc(N2CCOCC2)o1)c1ccccc1[N+](=O)[O-] | 12.9
C=CCc1cccc(OC)c1OCCOCCNCCO.O=C(O)C(=O)O | 1.46
CCNC(=O)N1CCNC(=O)C1CC(=O)Nc1ccc(C(=O)OCC)cc1 (stereo not shown) | 5.52
CCOC(=O)c1sc(NC(=O)CSc2nnc(Cc3ccccc3)o2)c(C(=O)OCC)c1C | 9.46
COc1ccc(NC(=S)N(Cc2ccc(C(=O)O)cc2)Cc2ccc(OC)c(OC)c2)cc1 | 28.8
Cc1cc(C(=O)Nc2ccccc2[N+](=O)[O-])cs1 | -19.5
CNC(=O)c1sc(-c2ccccc2)nc1C | 5.39
CC(C)(C)c1ccc(OC(=O)c2ccc(-n3cncn3)nc2)cc1 | 16
O=C(CN(Cc1ccc(Br)cc1)S(=O)(=O)c1ccccc1)NCc1ccncc1 | -68.8
CC1(C)CC(NC(=O)c2cccc([N+](=O)[O-])c2)CC(C)(C)N1 | 24.2
CC1(C)CN(S(=O)(=O)OCC(Cl)(Cl)Cl)C(=O)N1 | 3.14
CC(=O)N(Cc1cccc(Br)c1)c1ccc(N2CCOCC2)c(Cl)c1 | -26.3
CC(C)Nc1nc(-c2cccnc2)nc(-c2ccccc2)c1C#N | 0.0862
CCc1ccc(OCC(=O)NCCN(C)C)c(Br)c1 | -58.4
Cc1cc(F)ccc1N1CCC(N2CCN(CCC(C)C)C(CCO)C2)CC1 (stereo not shown) | -63.5
O=C1C2ON(c3ccccc3)C(c3cccnc3)C2C(=O)N1c1ccccc1 (stereo not shown) | 18.1
O=C(Nc1ccc(C(=O)Oc2ccccc2)c(O)c1)c1ccccc1 | 21.7
CC(C)(C)OC(=O)NCCc1nnc(SCC(=O)c2ccc(Cl)cc2)o1 | 1.1
O=C(Cn1nc(Cc2cccnc2)c2ccccc2c1=O)Nc1ccc2c(c1)OCO2 | -41.1
